# Experimental data reported in paper PMC4336329 (PLoS ONE, 2015).
# Out of some 310,000 compounds screened, about 14,000 (4.5%) showed an effect of 50% or more. The effect is printed as a negative number. This is one part of the list.
# Molecular target: human ether-à-go-go-related gene (hERG) potassium channel (human, UniProt Q12809)
# Experiment: primary screen, population patch clamp on CHO cells stably expressing hERG
# 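Further: peak tail current of the secondary pulse compared with the same well before compound.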
# Sequence of human ether-à-go-go-related gene (hERG) potassium channel (Q12809 whole entry, looked up): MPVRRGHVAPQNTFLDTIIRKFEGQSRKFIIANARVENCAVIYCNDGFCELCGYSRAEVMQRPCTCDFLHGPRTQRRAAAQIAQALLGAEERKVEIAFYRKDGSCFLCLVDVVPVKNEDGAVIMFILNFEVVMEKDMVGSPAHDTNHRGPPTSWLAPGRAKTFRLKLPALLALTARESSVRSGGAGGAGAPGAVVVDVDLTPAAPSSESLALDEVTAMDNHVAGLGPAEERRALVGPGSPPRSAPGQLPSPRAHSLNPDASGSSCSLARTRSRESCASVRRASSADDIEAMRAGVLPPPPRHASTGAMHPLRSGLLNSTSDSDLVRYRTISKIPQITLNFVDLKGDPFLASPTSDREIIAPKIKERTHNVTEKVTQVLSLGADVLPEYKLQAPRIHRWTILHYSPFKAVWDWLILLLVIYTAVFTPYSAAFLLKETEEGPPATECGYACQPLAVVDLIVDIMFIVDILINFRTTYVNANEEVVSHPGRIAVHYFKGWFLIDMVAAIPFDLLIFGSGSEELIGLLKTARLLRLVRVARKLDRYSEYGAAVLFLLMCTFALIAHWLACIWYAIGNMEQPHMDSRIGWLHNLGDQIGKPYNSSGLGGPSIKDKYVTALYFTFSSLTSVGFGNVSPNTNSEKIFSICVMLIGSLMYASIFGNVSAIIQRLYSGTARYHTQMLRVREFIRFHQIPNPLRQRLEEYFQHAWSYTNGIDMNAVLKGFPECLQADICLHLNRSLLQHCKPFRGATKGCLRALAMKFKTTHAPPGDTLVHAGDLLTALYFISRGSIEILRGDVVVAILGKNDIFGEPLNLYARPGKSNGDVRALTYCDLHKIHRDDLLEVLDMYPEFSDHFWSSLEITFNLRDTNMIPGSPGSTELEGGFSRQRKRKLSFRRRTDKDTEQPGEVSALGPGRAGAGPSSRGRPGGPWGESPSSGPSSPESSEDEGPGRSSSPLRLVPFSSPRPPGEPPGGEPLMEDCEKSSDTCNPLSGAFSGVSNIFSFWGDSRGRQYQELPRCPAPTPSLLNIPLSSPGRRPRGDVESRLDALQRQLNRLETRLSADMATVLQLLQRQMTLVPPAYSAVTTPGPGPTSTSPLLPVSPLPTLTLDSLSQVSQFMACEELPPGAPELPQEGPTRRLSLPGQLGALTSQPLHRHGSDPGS
row,SMILES,"hERG current change (%, negative = inhibition) at 10uM [%]"
1,Cc1ccc(NC(=O)Cc2sc(C)nc2-c2ccc(C)cc2)cc1,-12.3
2,COc1ccc(Cn2c(O)cc(=O)[nH]c2=O)cc1,11.8
3,Nc1nc(-c2ccccc2)nn1C(=O)Cc1ccccc1,22
4,CCCOc1ccccc1/C=C1\SC(N2CCCCC2)=NC1=O,-12.3
5,COc1ccc(S(=O)(=O)NC2CCCC2)cc1Br,-7.96
6,O=C1CC2(CCN(C(=O)C3CC(=O)N(c4ccc(F)cc4)C3)CC2)Oc2ccccc21 (centres unmarked),-78.7
7,COc1ccc(C(C)=O)cc1CN1C(=O)NC2(CCCCC2C)C1=O (centres unmarked),-2.09
8,Cc1cccc2cc(CN(C(=O)c3cnccn3)C3CCCCC3)c(Cl)nc12,10.8
9,Cn1c(SCC(=O)NC2CCCC2)nnc1-c1ccncc1,33.9
10,COC(=O)CCCNC(=O)c1ccc2oc(CCCc3ccccc3)nc2c1,-17.9
11,Cc1ccc(OCCOC(=O)c2sc(=S)n(C)c2C)cc1,16.8
12,CC(=O)Nc1ccc(S(=O)(=O)NC2(C(F)(F)F)NC(=O)N(c3ccc(C)cc3)C2=O)cc1 (centres unmarked),11.1
13,O=C1C2C3C=CC(C2C(=O)N1c1ccc(O)cc1)C1C2C(=O)N(c4ccc(O)cc4)C(=O)C2C31 (centres unmarked),-10.7
14,Cc1cc(N2CCN(C(c3ccccc3)c3ccccc3)CC2)n2ncnc2n1,-5.7
15,CN(C(=O)CO/N=C/c1ccc(OC(F)F)cc1)C1CCS(=O)(=O)C1 (centres unmarked),-59.2
16,COCCNC(=O)COc1ncnc2scc(-c3ccc(F)cc3)c12,-0.0199
17,CC(=O)Oc1ccc(N2C(=O)C3C4C=CC(O4)C3C2=O)cc1 (centres unmarked),17.3
18,CC(=O)NC(Cc1ccc(F)c(F)c1)C(=O)NC1CCN(C(=O)c2ccc(Cl)cc2)CC1 (centres unmarked),-56.9
19,CCCOc1ccc(CC(=O)NCCc2ccccc2)cc1OC,-3.19
20,CCCCc1ccc(/C(C)=N/NC(=O)C2CCCC2)cc1,8.29
21,CCOc1ccc(-n2c(Cc3cc(=O)[nH]c(=O)[nH]3)nnc2SCC(N)=O)cc1,1.61
22,O=C1NC(=O)N(c2ccccc2)C(=O)/C1=C\c1ccc([N+](=O)[O-])o1,1.93

row,SMILES,"hERG current change (%, negative = inhibition) at 10uM [%]"
1,N#Cc1c(-c2ccc(Cl)cc2)ccn2nc(CCC(=O)O)nc12,16.4
2,COc1ccc(C2C(=O)N(C3CCCCC3)CC(=O)N2Cc2ccco2)cc1 (centres unmarked),-53.7
3,COc1ccccc1NC(=O)c1ccc(NC(=O)CSc2ncn[nH]2)cc1,19.1
4,O=C(COC(=O)c1ccc(Cl)c(S(=O)(=O)N2CCCCCC2)c1)Nc1ccccc1,-0.489
5,Cc1nn(-c2ccccc2)c(C)c1-c1ccccc1O,4.92
6,COC(=O)c1ccccc1N1C(=O)[C@@H]2C(c3ccc(F)cc3)=NO[C@@H]2C1=O,-5.78
7,O=C(CCNS(=O)(=O)c1cccc2nsnc12)Nc1ccc2c(c1)OCCO2,7.28
8,CCOc1ccc(NC(=O)CN(C)C(=O)c2ccc(NC3CC3)c([N+](=O)[O-])c2)cc1OCC,-59
9,CCOC(=O)c1c(S(=O)(=O)NCC(=O)N2CCN(c3ccc(OC)cc3)CC2)c(C)n(C)c1C,9.12
10,CC(C)=CCSc1nnc(CCNC(=O)OC(C)(C)C)o1,-36.5
11,Cc1ccc(CSC2=CS(=O)(=O)c3ccccc3N2)cc1,-6.46
12,COCCNC(=O)CN(C(=O)Cn1nnc2ccccc21)c1ccc(F)c(Cl)c1,-3.78
13,CC(C)CNC(=S)NNC(=O)c1ccc(OC(F)F)cc1,-17.4
14,O=C(OC(C(=O)Nc1ccc(Cl)cc1C(F)(F)F)c1ccccc1)C1=COCCO1 (centres unmarked),-39.2
15,CC1CCC(NC(=O)c2ccc(S(C)(=O)=O)cc2)CC1 (centres unmarked),8.59
16,COCCn1c(=O)[nH]c2cc(C(=O)NCCCN3CCN(c4ccc(F)cc4)CC3)ccc2c1=O,-11.5
17,O=C(CC1C(=O)NCCN1Cc1cccc(C(F)(F)F)c1)NC1CCCCCC1 (centres unmarked),5.99
18,COC(=O)c1cn(-c2nc(C)c3c(n2)CCC3)nn1,16.5
19,C(=C\CSc1ncn[nH]1)/CSc1ncn[nH]1,-1.48
20,CC(=O)Cn1nnc2sc(-c3ccccc3)cc2c1=O,13.4
21,O=C(NCc1cccc(C(F)(F)F)c1)C1CCC(=O)N(C2CCCCCC2)C1 (centres unmarked),-23.1
22,COc1ccc(C2C(C(=O)NCCN3CCOCC3)c3ccccc3C(=O)N2C2CCCCC2)cc1 (centres unmarked),-13.4
